Where two headings read alike, the source gives them in different places. These are yes or no findings as the source states them, for the method shown. Binding seen in cells or lysates may run through a third protein. Some entries that bind do so weakly or less than the wild type. For part of these data: Where a sequence is shown, tags or fusion partners need not be part of it. Values belong to the molecule of their own block, whether it stands above or below them.
Legend:
GST-syndapin I [1] = target: GST-syndapin I (UniProt Q9Z0W5); assay: pull-down; GST fusion proteins purified from E. coli, coupled to a glutathione-matrix, incubated with lysates of HEK293 cells overexpressing the partner; eluted with 20 mM glutathione; immunoblotting; only the target purified
[2] = target: endogenous rhotekin2 from brain lysates (Fig. 3h) (mouse (endogenous in brain, by the methods; the results say rat)) (UniProt Q14B46); assay: co-IP; endogenous proteins; protein A/G agarose coated with affinity-purified guinea pig anti-rhotekin2 antibodies or non-immune guinea pig IgG, 2 h at 4 °C with brain lysate in IP buffer
GST-syndapin I [3] = target: GST-syndapin I (UniProt Q9Z0W5); assay: pull-down; GST fusion proteins purified from E. coli, coupled to a glutathione-matrix, incubated with lysates of HEK293 cells overexpressing the partner; eluted with 20 mM glutathione; immunoblotting; only the target purified; remark: listed apart in the source

Sequences of proteins named here, by UniProt entry; tags and fusion partners are left off. A change or cut given only in a name is not applied to a line headed by its entry. A line that says so, or that is headed by a name, gives the form on record, which may keep a tag or linker.
UniProt Q9Z0W5: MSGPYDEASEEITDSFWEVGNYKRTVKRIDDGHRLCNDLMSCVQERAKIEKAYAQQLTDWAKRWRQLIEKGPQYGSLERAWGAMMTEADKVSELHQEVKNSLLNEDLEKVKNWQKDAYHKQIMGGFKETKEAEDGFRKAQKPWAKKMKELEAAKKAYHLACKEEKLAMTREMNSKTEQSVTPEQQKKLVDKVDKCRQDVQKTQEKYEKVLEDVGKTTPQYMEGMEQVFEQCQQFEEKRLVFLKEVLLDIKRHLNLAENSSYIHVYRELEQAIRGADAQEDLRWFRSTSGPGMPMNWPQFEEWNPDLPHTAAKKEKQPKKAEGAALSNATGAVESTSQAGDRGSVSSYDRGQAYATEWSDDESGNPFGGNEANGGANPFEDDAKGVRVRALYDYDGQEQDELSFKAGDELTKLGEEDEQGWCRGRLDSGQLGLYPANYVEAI
UniProt Q14B46: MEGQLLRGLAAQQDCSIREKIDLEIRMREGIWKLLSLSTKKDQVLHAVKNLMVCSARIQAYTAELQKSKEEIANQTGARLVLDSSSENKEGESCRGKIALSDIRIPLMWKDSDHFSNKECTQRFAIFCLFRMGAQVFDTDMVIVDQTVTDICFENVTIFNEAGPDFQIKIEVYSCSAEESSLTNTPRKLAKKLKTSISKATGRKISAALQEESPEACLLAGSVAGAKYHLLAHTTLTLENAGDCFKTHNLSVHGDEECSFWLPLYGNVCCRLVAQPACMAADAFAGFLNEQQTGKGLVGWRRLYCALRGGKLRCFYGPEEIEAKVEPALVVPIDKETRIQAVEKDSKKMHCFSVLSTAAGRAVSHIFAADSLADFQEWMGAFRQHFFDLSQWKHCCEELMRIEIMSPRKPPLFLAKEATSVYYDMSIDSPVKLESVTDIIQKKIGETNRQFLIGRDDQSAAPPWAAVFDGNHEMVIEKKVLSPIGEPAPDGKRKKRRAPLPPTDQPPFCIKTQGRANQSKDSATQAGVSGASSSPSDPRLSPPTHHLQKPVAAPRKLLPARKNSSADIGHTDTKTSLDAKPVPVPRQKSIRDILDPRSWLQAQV
rhotekin2^∆KRAP (untagged full-length rhotekin2 lacking amino acids 492-503) (Q14B46-1, form named): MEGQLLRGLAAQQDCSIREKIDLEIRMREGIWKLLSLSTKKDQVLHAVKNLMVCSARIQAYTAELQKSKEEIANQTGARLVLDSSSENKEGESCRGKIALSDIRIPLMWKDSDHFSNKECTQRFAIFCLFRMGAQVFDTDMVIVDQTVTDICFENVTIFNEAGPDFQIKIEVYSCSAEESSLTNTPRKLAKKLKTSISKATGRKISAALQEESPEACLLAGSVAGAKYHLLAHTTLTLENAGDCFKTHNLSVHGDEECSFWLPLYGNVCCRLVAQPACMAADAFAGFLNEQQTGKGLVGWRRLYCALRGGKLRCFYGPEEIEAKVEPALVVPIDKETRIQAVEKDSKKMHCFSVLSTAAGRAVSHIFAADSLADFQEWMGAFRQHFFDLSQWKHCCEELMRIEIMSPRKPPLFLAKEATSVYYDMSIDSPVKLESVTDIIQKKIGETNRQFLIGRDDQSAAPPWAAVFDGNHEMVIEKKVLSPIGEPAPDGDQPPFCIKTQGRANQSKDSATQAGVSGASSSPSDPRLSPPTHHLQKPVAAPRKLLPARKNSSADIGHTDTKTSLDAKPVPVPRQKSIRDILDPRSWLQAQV
UniProt O35303: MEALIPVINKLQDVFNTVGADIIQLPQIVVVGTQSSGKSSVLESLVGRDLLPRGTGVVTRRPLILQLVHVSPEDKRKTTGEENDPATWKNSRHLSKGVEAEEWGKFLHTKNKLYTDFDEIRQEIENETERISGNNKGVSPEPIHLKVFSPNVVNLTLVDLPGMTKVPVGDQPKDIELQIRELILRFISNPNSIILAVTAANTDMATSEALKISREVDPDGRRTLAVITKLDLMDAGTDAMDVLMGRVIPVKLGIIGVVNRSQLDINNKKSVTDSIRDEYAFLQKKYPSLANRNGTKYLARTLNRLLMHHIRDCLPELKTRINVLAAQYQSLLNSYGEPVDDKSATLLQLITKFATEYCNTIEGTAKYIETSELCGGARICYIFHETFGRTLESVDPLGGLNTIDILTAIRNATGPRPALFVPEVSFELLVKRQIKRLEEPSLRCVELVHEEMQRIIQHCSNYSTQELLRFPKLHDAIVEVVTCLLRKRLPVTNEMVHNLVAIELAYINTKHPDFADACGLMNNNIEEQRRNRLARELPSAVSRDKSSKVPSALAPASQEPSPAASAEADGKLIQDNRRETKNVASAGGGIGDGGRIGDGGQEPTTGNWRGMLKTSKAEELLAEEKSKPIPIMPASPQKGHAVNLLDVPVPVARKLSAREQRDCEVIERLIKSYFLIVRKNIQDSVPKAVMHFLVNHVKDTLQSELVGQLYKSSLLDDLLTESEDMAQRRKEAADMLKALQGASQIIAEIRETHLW
UniProt Q61644: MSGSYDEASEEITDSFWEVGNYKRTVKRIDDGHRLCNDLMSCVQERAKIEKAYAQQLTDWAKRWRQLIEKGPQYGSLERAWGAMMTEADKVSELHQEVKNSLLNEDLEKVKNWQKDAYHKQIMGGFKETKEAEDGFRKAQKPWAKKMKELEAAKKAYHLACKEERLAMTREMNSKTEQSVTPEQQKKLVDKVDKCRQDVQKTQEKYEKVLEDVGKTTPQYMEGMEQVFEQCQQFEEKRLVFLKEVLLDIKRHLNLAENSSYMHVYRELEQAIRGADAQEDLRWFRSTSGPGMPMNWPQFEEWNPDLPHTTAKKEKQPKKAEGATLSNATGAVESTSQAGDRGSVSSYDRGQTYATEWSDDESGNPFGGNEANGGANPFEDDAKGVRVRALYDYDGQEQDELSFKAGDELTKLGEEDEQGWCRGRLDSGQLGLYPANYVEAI

Molecule: Xpress-tag dynamin-related protein 1 (Xpress-Drp1) (from UniProt O35303 1-755)
binding (GST-syndapin I [1]): no binding

Molecule: rhotekin2^∆KRAP (untagged full-length rhotekin2 lacking amino acids 492-503) (from UniProt Q14B46-1 1-604)
binding (GST-syndapin I [1]): no binding

B2: myc-tagged dynamin2 (protein, UniProt P39052 1-870)
chain: MGNRGMEELIPLVNKLQDAFSSIGQSCHLDLPQIAVVGGQSAGKSSVLENFVGRDFLPRGSGIVTRRPLILQLIFSKTEYAEFLHCKSKKFTDFDEVRQEIEAETDRVTGTNKGISPVPINLRVYSPHVLNLTLIDLPGITKVPVGDQPPDIEYQIKDMILQFISRESSLILAVTPANMDLANSDALKLAKEVDPQGLRTIGVITKLDLMDEGTDARDVLENKLLPLRRGYIGVVNRSQKDIEGRKDIRAALAAERKFFLSHPAYRHMADRMGTPHLQKTLNQQLTNHIRESLPTLRSKLQSQLLSLEKEVEEYKNFRPDDPTRKTKALLQMVQQFGVDFEKRIEGSGDQVDTLELSGGARINRIFHERFPFELVKMEFDEKDLRREISYAIKNIHGVRTGLFTPDLAFEAIVKKQVVKLKEPCLKCVDLVIQELISTVRQCTSKLSSYPRLREETERIVTTYIREREGRTKDQILLLIDIEQSYINTNHEDFIGFANAQQRSTQLNKKRAIPNQGEILVIRRGWLTINNISLMKGGSKEYWFVLTAESLSWYKDEEEKEKKYMLPLDNLKIRDVEKGFMSNKHVFAIFNTEQRNVYKDLRQIELACDSQEDVDSWKASFLRAGVYPEKDQAENEDGAQENTFSMDPQLERQVETIRNLVDSYVAIINKSIRDLMPKTIMHLMINNTKAFIHHELLAYLYSSADQSSLMEESAEQAQRRDDMLRMYHALKEALNIIGDISTSTVSTPVPPPVDDTWLQNTSSHSPTPQRRPVSSVHPPGRPPAVRGPTPGPPLIPMPVGATSSFSAPPIPSRPGPQNVFANNDPFSAPPQIPSRPARIPPGIPPGVPSRRAPAAPSRPTIIRPAEPSLLD
binding (GST-syndapin I [3]): binds

The next lines start with the values.

binding (GST-syndapin I [1]): binds
Molecule: (untagged) full-length rhotekin2 (RTKN2 isoform 1) (from UniProt Q14B46-1 1-604)

binding [2]: binds
Molecule: endogenous syndapin I from brain lysates (Fig. 3h) (from UniProt Q61644 1-441)

binding (GST-syndapin I [3]): binds
B1: myc-tagged dynamin1 (protein, UniProt P21575 1-864)
chain: MGNRGMEDLIPLVNRLQDAFSAIGQNADLDLPQIAVVGGQSAGKSSVLENFVGRDFLPRGSGIVTRRPLVLQLVNSTTEYAEFLHCKGKKFTDFEEVRLEIEAETDRVTGTNKGISPVPINLRVYSPHVLNLTLVDLPGMTKVPVGDQPPDIEFQIRDMLMQFVTKENCLILAVSPANSDLANSDALKIAKEVDPQGQRTIGVITKLDLMDEGTDARDVLENKLLPLRRGYIGVVNRSQKDIDGKKDITAALAAERKFFLSHPSYRHLADRMGTPYLQKVLNQQLTNHIRDTLPGLRNKLQSQLLSIEKEVDEYKNFRPDDPARKTKALLQMVQQFAVDFEKRIEGSGDQIDTYELSGGARINRIFHERFPFELVKMEFDEKELRREISYAIKNIHGIRTGLFTPDLAFEATVKKQVQKLKEPSIKCVDMVVSELTSTIRKCSEKLQQYPRLREEMERIVTTHIREREGRTKEQVMLLIDIELAYMNTNHEDFIGFANAQQRSNQMNKKKTSGNQDEILVIRKGWLTINNIGIMKGGSKEYWFVLTAENLSWYKDDEEKEKKYMLSVDNLKLRDVEKGFMSSKHIFALFNTEQRNVYKDYRQLELACETQEEVDSWKASFLRAGVYPERVGDKEKASETEENGSDSFMHSMDPQLERQVETIRNLVDSYMAIVNKTVRDLMPKTIMHLMINNTKEFIFSELLANLYSCGDQNTLMEESAEQAQRRDEMLRMYHALKEALSIIGDINTTTVSTPMPPPVDDSWLQVQSVPAGRRSPTSSPTPQRRAPAVPPARPGSRGPAPGPPPAGSALGGAPPVPSRPGASPDPFGPPPQVPSRPNRAPPGVPSRSGQASPSRPESPRPPFDL

From PMC11893792
